Some of the results follow.
Tests used:
HSkMC = human skeletal muscle cells; assay: cytotoxicity call (relative viability < 0.9); conditions: 10 µM
HepG2 = assay: cytotoxicity call (relative viability < 0.9); conditions: 10 µM
S. aureus RN4220 = assay: growth inhibition call (relative growth <= 0.2); conditions: 50 µM

| Compound | cytotoxicity call (HSkMC) | cytotoxicity call (HepG2) | growth inhibition call (S. aureus RN4220) |
| --- | --- | --- | --- |
| CC(=O)n1cc([C@H]2C=C(C(=O)NCc3ccccc3)O[C@@H](OCc3ccc(CO)cc3)C2)c2ccccc21 | inactive | inactive | inactive |
| Cc1noc(C)c1S(=O)(=O)N(C)C[C@H]1Oc2ccc(N(C)C)cc2CC(=O)N([C@@H](C)CO)C[C@H]1C | inactive | inactive | inactive |
| COCC#Cc1cnc2c(c1)C(=O)N([C@H](C)CO)C[C@H](C)[C@@H](CN(C)C(=O)c1ccc3c(c1)OCO3)O2 | inactive | inactive | inactive |
| C[C@H](CO)N1C[C@H](C)[C@@H](CN(C)Cc2ccc(Cl)c(Cl)c2)Oc2ccc(NC(=O)C3CCCCC3)cc2C1=O | inactive | inactive | inactive |
| C[C@H]1CN([C@@H](C)CO)S(=O)(=O)c2ccc(C#Cc3ccncc3)cc2O[C@H]1CN(C)C(=O)Nc1ccc2c(c1)OCO2 | inactive | active | inactive |
| C[C@H]1CN([C@@H](C)CO)S(=O)(=O)c2ccc(C3=CCCC3)cc2O[C@@H]1CN(C)C(=O)C1CCOCC1 | inactive | inactive | inactive |
| CN(C)CC#Cc1ccc([C@@H]2[C@H]3CN(C(=O)CN(C)C)CC(=O)N3[C@H]2CO)cc1 | inactive | inactive | inactive |
| COCC#Cc1ccc2c(c1)O[C@@H](CN(C)C(=O)c1ccccc1F)[C@@H](C)CN([C@H](C)CO)S2(=O)=O | inactive | inactive | inactive |
| C[C@@H]1CCCCO[C@H](CN(C)C(=O)Cc2ccccc2)[C@H](C)CN([C@H](C)CO)C(=O)c2cc(NC(=O)CCC(F)(F)F)ccc2O1 | inactive | inactive | inactive |
| COCC#Cc1cnc2c(c1)C(=O)N([C@@H](C)CO)C[C@H](C)[C@H](CN(C)S(=O)(=O)c1cn(C)cn1)O2 | inactive | inactive | inactive |
| C[C@H]1CN([C@@H](C)CO)C(=O)c2cc(NS(=O)(=O)c3ccc(F)cc3)ccc2O[C@H]1CN(C)C(=O)Nc1ccc(C(F)(F)F)cc1 | inactive | inactive | inactive |
| C[C@@H]1CN([C@@H](C)CO)C(=O)c2cccc(NS(=O)(=O)c3cn(C)cn3)c2O[C@H]1CN(C)C(=O)Nc1ccc2c(c1)OCO2 | inactive | inactive | inactive |
| C[C@@H]1CCCCO[C@H](CN(C)Cc2ccc(C(=O)O)cc2)[C@H](C)CN([C@@H](C)CO)C(=O)c2cc(NC(=O)Nc3ccc(C(F)(F)F)cc3)ccc2O1 | inactive | inactive | inactive |
| COc1ccc(S(=O)(=O)N(C)C[C@@H]2Oc3ccc(NC(=O)Cc4ccccc4)cc3C(=O)N([C@@H](C)CO)C[C@@H]2C)cc1 | inactive | inactive | inactive |
| C[C@@H]1CN([C@H](C)CO)C(=O)Cc2cc(NC(=O)CCN3CCOCC3)ccc2O[C@@H]1CN(C)S(=O)(=O)c1ccc(Cl)cc1 | inactive | inactive | inactive |
| C[C@H]1CN([C@@H](C)CO)C(=O)c2cccc(NC(=O)c3cnccn3)c2O[C@H]1CN(C)S(=O)(=O)c1ccc(F)cc1 | inactive | inactive | inactive |
| Cc1noc(C)c1NC(=O)Nc1ccc2c(c1)CC(=O)N([C@H](C)CO)C[C@@H](C)[C@@H](CN(C)S(=O)(=O)c1c(C)noc1C)O2 | inactive | inactive | inactive |
| C[C@@H]1CN([C@H](C)CO)C(=O)c2cc(NS(=O)(=O)c3ccc(Cl)cc3)ccc2O[C@@H](C)CCCCO[C@@H]1CN(C)Cc1ccc(Cl)c(Cl)c1 | inactive | active | inactive |
| COc1ccc(NC(=O)Nc2ccc3c(c2)C(=O)N([C@@H](C)CO)C[C@H](C)[C@@H](CN(C)C(=O)CCC(F)(F)F)OCCCC[C@@H](C)O3)cc1 | inactive | inactive | inactive |
| C[C@H](CO)N1C[C@H](C)[C@@H](CN(C)C(=O)c2ccccc2)OCCCC[C@H](C)Oc2ccc(NC(=O)Cc3ccccc3)cc2C1=O | inactive | inactive | inactive |
| O=C1O[C@@H](c2ccccc2)[C@@H](c2ccccc2)N2[C@@H](c3ccc(O)cc3)[C@]3(C(=O)Nc4ccc(C#CC5=CCCCC5)cc43)[C@@H](C(=O)NC[C@H](O)c3ccccc3)[C@H]12 | inactive | inactive | inactive |
| C[C@@H]1CN([C@@H](C)CO)C(=O)c2cccc(NC(=O)Nc3cccc4ccccc34)c2O[C@H]1CN(C)C(=O)Nc1ccccc1 | active | active | inactive |
| CCCn1ncnc1[C@@H](C)N | inactive | inactive | inactive |
| CCCN(C)C[C@@H]1OCCCC[C@@H](C)Oc2ccc(NC(=O)C3CCCCC3)cc2C(=O)N([C@@H](C)CO)C[C@@H]1C | inactive | inactive | inactive |
| COc1cccc(S(=O)(=O)N(C)C[C@H]2Oc3ncc(C#CC(C)C)cc3C(=O)N([C@@H](C)CO)C[C@H]2C)c1 | inactive | inactive | inactive |

| Compound | cytotoxicity call (HSkMC) | cytotoxicity call (HepG2) | growth inhibition call (S. aureus RN4220) |
| --- | --- | --- | --- |
| C[C@@H]1CCCCO[C@@H](CN(C)C(=O)c2ccncc2)[C@H](C)CN([C@H](C)CO)C(=O)c2cc(NC(=O)NC3CCCCC3)ccc2O1 | inactive | inactive | inactive |
| C[C@@H]1CN([C@@H](C)CO)C(=O)c2cc(NC(=O)C3CCCCC3)ccc2O[C@H]1CN(C)Cc1ccc(Cl)c(Cl)c1 | inactive | inactive | inactive |
| C[C@H](CO)N1C[C@H](C)[C@H](CN(C)C(=O)Nc2cccc(F)c2)OCc2ccccc2-c2c(n(C)c3ccccc23)C1=O | inactive | inactive | inactive |
| CN1CCN(C(=O)C[C@H]2CC[C@@H]3[C@H](COC[C@H](O)CN3S(=O)(=O)c3cccc(F)c3)O2)CC1 | inactive | inactive | inactive |
| Cc1ccc(OC(=O)N(C)C[C@H]2OCc3ccccc3-c3ccccc3C(=O)N([C@H](C)CO)C[C@@H]2C)cc1 | inactive | inactive | inactive |
| Cc1noc(C)c1S(=O)(=O)N(C)C[C@H]1Oc2ccc(NS(C)(=O)=O)cc2CC(=O)N([C@@H](C)CO)C[C@@H]1C | inactive | inactive | inactive |
| COCC#Cc1ccc2c(c1)O[C@@H](CN(C)S(=O)(=O)c1ccc(C)cc1)[C@@H](C)CN([C@@H](C)CO)S2(=O)=O | inactive | inactive | inactive |
| C[C@H]1CCCCO[C@H](CN(C)C(=O)C2CCCCC2)[C@@H](C)CN([C@@H](C)CO)C(=O)c2cc(NS(=O)(=O)c3ccc(F)cc3)ccc2O1 | inactive | inactive | inactive |
| C[C@H]1CN([C@@H](C)CO)C(=O)c2cccc(NC(=O)Nc3ccc4c(c3)OCO4)c2O[C@@H]1CN(C)C(=O)Nc1ccc(C(F)(F)F)cc1 | inactive | inactive | inactive |
| O=C(C[C@H]1C=C[C@@H](NS(=O)(=O)c2ccc(F)cc2)[C@@H](CO)O1)NCCN1CCCCC1 | inactive | inactive | inactive |
| COC1C=COC2(C)Oc3c(C)c(O)c4c(O)c(c(C=NN5CCN(C)CC5)c(O)c4c3C2=O)NC(=O)C(C)=CC=CC(C)C(O)C(C)C(O)C(C)C(OC(C)=O)C1C (stereo not given) | inactive | inactive | inactive |
| COc1ccc2c3c(n(c2c1)C)[C@H](CO)N(CC1CCOCC1)C[C@]13CN(C1)C(=O)Cc1cccnc1 | inactive | inactive | inactive |
| COc1ccc(S(=O)(=O)N(C)C[C@H]2OCCCC[C@@H](C)Oc3ccc(NC(=O)Nc4cccc5ccccc45)cc3C(=O)N([C@H](C)CO)C[C@@H]2C)cc1 | inactive | inactive | inactive |
| C[C@@H]1CCCCO[C@H](CN(C)Cc2ccncc2)[C@@H](C)CN([C@H](C)CO)C(=O)c2cc(NC(=O)NC3CCCCC3)ccc2O1 | inactive | inactive | inactive |
| C[C@@H]1CCCCO[C@H](CN(C)Cc2ccc(C(=O)O)cc2)[C@H](C)CN([C@@H](C)CO)C(=O)c2cc(NC(=O)c3ccccc3)ccc2O1 | inactive | inactive | inactive |
| Cc1ccc(S(=O)(=O)N(C)C[C@@H]2OCCCC[C@@H](C)Oc3ccc(NC(=O)Nc4ccc(C(F)(F)F)cc4)cc3C(=O)N([C@@H](C)CO)C[C@H]2C)cc1 | inactive | active | inactive |
| C[C@H](CO)N1C[C@H](C)[C@@H](CN(C)C(=O)Nc2cccc3ccccc23)Oc2ccc(NS(=O)(=O)c3ccc(F)cc3)cc2C1=O | inactive | inactive | inactive |
| CC(C)CCC(=O)N1C[C@@H]2c3nc(N4CCOCC4)ncc3CS(=O)(=O)[C@H]2C1 | inactive | inactive | inactive |
| C[C@@H]1CN([C@@H](C)CO)C(=O)c2cc(NS(=O)(=O)c3ccc(Cl)cc3)ccc2O[C@@H](C)CCCCO[C@H]1CN(C)S(=O)(=O)c1ccc(Cl)cc1 | inactive | inactive | inactive |
| Cc1ccc(S(=O)(=O)Nc2ccc3c(c2)C(=O)N([C@@H](C)CO)C[C@@H](C)[C@@H](CN(C)Cc2ccc(-c4ccccc4)cc2)O3)cc1 | inactive | active | inactive |
| C[C@H](CO)N1C[C@H](C)[C@H](CN(C)Cc2ccc(C(=O)O)cc2)Oc2ccc(NC(=O)Nc3ccc(C(F)(F)F)cc3)cc2C1=O | inactive | inactive | inactive |
| CCCCCCCCCCCCCCCCCCCC(=O)N[C@H]1CC[C@@]2(C)[C@@H](C1)C[C@@H](O)[C@@H]1[C@@H]2C[C@H](O)[C@]2(C)[C@@H]([C@H](C)CCC(=O)O)CC[C@@H]12 | active | inactive | inactive |
| C[C@H]1CCCCO[C@@H](CN(C)C(=O)Nc2ccccc2)[C@@H](C)CN([C@@H](C)CO)C(=O)c2cc(NS(=O)(=O)c3ccc(Cl)cc3)ccc2O1 | inactive | inactive | inactive |
| O=C(Nc1ccc(-c2nc3ccc(NC(=O)c4ccc(NC(=O)c5cccc6ccccc56)cc4)cc3[nH]2)cc1)c1ccc(NC(=O)c2cccc3ccccc23)cc1 | inactive | inactive | inactive |
| NC(=O)[C@H]1[C@@H]2C(=O)O[C@@H](c3ccccc3)[C@@H](c3ccccc3)N2[C@@H](c2ccc(OCCO)cc2)[C@]12C(=O)Nc1ccc(C#CC3(O)CCCCCC3)cc12 | inactive | inactive | inactive |

Source: the antibiotic and cytotoxicity screens of Wong et al. (2023)
